Data reported in paper PMC6451091.
The list shows a part of the results. For part of these data: At the low end of the ranking the order means little. For part of these data: The protein was read in a cell extract, so binding may be indirect.

Each sequence was assayed against PU.1 (IVT) (UniProt P17947) (assay: protein-binding microarray (PBM)). Details: 20 mM HEPES pH 7.9, 100 mM NaCl, 1 mM DTT, 0.2 mg/mL BSA, 0.02% Triton X-100, 2% milk, 0.4 mg/mL salmon testes DNA; 1 h; temperature not stated; high values mean tight binding; double strand, one strand shown; sequences stand for … in GCCTAGCAC…GTGCTAGGTCTTGATTCGCTTGACGCTGCTG.

Sequence | binding signal [z-score]
GACGCTGGGAAGTACTGTGA | 0.737
AGAAAGGGGAAGTCCAATAG | 6.98
CAAAAGAGGAACTCTGAAAG | 5.64
AGAAAGAGGAAGTGTTTATA | 8.43
GAAAACAGGAGGTCCCATAG | -0.0923
ATTATAAGGAAGTCAAACTG | 4.12
CAGAATAGGAAGTGGAGAAT | 2.91

What follows are sequences tested against PU.1 (endogenous, THP-1 nuclear extract) (UniProt P17947) (assay: nuclear extract protein-binding microarray (nextPBM)). Details: 20 mM HEPES pH 7.9, 100 mM NaCl, 1 mM DTT, 0.2 mg/mL BSA, 0.02% Triton X-100, 2% milk, 0.4 mg/mL salmon testes DNA; 1 h; temperature not stated; high values mean tight binding; double strand, one strand shown; sequences stand for … in GCCTAGCAC…GTGCTAGGTCTTGATTCGCTTGACGCTGCTG.

Sequence | binding signal [z-score]
TTCATGAGGAAGTGGCTTAG | 5.27
CAAAGCGGGAAGTGGGTGGG | 3.04
CAAATGAGGAACTGATGTGG | 6.22
GGAAGGAGGAAGTCAGCTTG | 5.42
AAAAAGGGGAAGTACTGCGA | 7.45
AAAAAAAGGAACTGATTCTT | 5
ACAAAAAGGAACTGTGACCC | 1.82
AAAAAACGGAACTGCAGAAG | 4.87
AGGGAGAGGAAGTGAGTCGT | 4.04
CTAATGAGGAACTGGCCCGA | 4.29
ACAAAAAGGAACTGTTCCCC | 1.86
AAAATAGGGAAGTGGGAAAC | 6.79
CAAAAGAGGAAGTGGCATAT | 7.16
GATAAGAGCAAGTCCTCTGT | -0.159
GAAAAGAGGAAGTCTGAAAA | 7.31
CGAAAAGGGAAGTGCTAAAC | 6.61
AAATAAAGGAAGTGGATGAT | 4.7
GCTTTAGGGAAGTGGGGCAG | 4.76
ACAAACGGGAAGTACTGTGT | 6.15
GAAAAGAGGAAGTTGCTTAC | 7.49
AGGAAGGGGAAGTGGCTACC | 6.39
CAGGAGAGGAACTGAGAATG | 2.38
GAAAAGAGGAAGTCAAATTT | 7.43
AGATAGCGGAAGTGTTGAGC | 6.16
CAAAACGGGAAGTGGATGCT | 6.94
TGAAAGAGGAACTCAGTCAT | 5.89
